Source: PubChem BioAssay AID1508623 (National Center for Advancing Translational Sciences (NCATS), 2021)
The campaign covered roughly 48,000 compounds. About 450 (0.94%) were called active. Another 19% or so got no clear call; they are omitted. Calls follow the shape of the dose curve; as a rule, active = well fitted inhibition curve with a large enough effect; inconclusive = small, poorly fitted or top-dose-only effect; inactive = no such curve, though single readings can be large or run the other way. This is one part of the list.
Potency is read from the fitted curve at half-maximal effect.

Experiment: Primary qHTS for Identification of Small Molecule Inhibitors of Huntingtin Promoter Activity; also: nearly all actives have a fitted effect of over 50% in size
Conditions: HEK293 HTT promoter firefly luciferase reporter (activity 0% = vehicle and -100% = no light), 24 h; series mostly up to 57.5 µM; activity change, negative = inhibition: at the top concentration
In short: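 HEK293 Fluc reporter, 2,500 cells/well, 24 h pre-culture; cpds up to 57.5 uM final, 24 h 37 degrees C; Dual-Glo, 10 min RT; normalized vehicle = 0%, zero RLU = -100%.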
With `CCOC(=O)c1sc2ncn(CC(=O)Nc3cccc(C)c3)c(=O)c2c1C` the “activity change, negative = inhibition” value was inactive: -6.54%.
For `CCc1cccc(NC(=O)c2cc(-c3ccccc3)n[nH]2)c1`, the “activity change, negative = inhibition” value was inactive: 11%.
With `O=C(Nc1cccc(Cl)c1)C1CCN(c2nc3ccccc3nc2C(F)(F)F)CC1` the “activity change, negative = inhibition” value was inactive: -5.62%.
For `Cc1cc(OC(C)C(=O)N2CCN(CCc3ccccn3)CC2)ccc1Cl` (centres undefined), the “activity change, negative = inhibition” value was inactive: -17.9%.
In the case of `Cc1c(F)cccc1NS(=O)(=O)c1cccs1`, the “activity change, negative = inhibition” value is reported as inactive: -17.7%.
With `CCC(CC)C(=O)Nc1ccc(OCc2cc(=O)n3ccc(C)cc3n2)cc1` the “activity change, negative = inhibition” value was inactive: -6.37%.
With `CCOc1ccccc1N1CC(c2nc3ccccc3n2CCCOc2ccccc2)CC1=O` (centres undefined) the “activity change, negative = inhibition” value was inactive: -30%.
For `CCOc1ccccc1C(N)=O`, the “activity change, negative = inhibition” value was inactive: 7.97%.
For `COc1ccc(C(C(=O)Nc2ccc(C(C)C)cc2)N(C)C(=O)Cc2cccs2)cc1` (centres undefined), the “activity change, negative = inhibition” value was inactive: -20.2%.
With `COc1ccc(S(=O)(=O)NC(C)C)cc1-n1cnnn1` the “activity change, negative = inhibition” value was inactive: -14.3%.
With `O=C(Nc1ccc(OC(F)(F)F)cc1)C1CCCN(S(=O)(=O)c2ccc(Br)s2)C1` (centres undefined) the “activity change, negative = inhibition” value was inactive: -6.49%.
For `O=C(Cc1csc2ccccc12)NCc1ccc(F)cc1`, the “activity change, negative = inhibition” value was inactive: 54.1%.
For `CC(C)(C)c1ccc(C(=O)Nc2nc3nc(-c4ccccc4)cc(=O)n3[nH]2)cc1`, the “activity change, negative = inhibition” value was inactive: -20.4%.
In the case of `Cc1ccc(NC(=O)Cn2c(SCc3cccc(F)c3)nc3ccncc32)c(C)c1`, the “activity change, negative = inhibition” value is reported as inactive: -18.3%.
With `C#CC(C)(CC)NC(=O)Cn1nnc(-c2ccc(OCc3ccccc3Cl)cc2)n1` (centres undefined) the “activity change, negative = inhibition” value was inactive: -33.7%.
For `COc1ccc(Br)cc1CNC(=O)CN1C(=O)CCCc2ccccc21`, the “activity change, negative = inhibition” value was inactive: -11%.
For `Cc1ccc2oc(C(=O)Nc3nc(-c4ccc(F)cc4)ns3)c(C)c2c1`, the “activity change, negative = inhibition” value was inactive: 1.66%.
With `CCc1ccc(C(=O)c2cn(CC(=O)Nc3ccc4c(c3)OCCO4)c3ccc(CC)cc3c2=O)cc1` the “activity change, negative = inhibition” value was inactive: -15.1%.
With `COc1cccc(NC(=O)CSC2=Nc3ccccc3C3=NC(CC(=O)NCc4cccs4)C(=O)N23)c1` (centres undefined) the “activity change, negative = inhibition” value was inactive: -6.08%.
In the case of `COc1ccc(C2c3c(oc4cc(C)cc(C)c4c3=O)C(=O)N2Cc2ccco2)cc1OC` (centres undefined), the “activity change, negative = inhibition” value is reported as inactive: 0.345%.
In the case of `Cc1cccc(N2CCN(C(=O)c3cc4c(=O)[nH]c5ccc(C)cc5c4s3)CC2C)c1` (centres undefined), the Potency is reported as active: 12.6 µM.
In the case of `COc1ccc(Cn2c(CNC(=O)Cc3cccc([N+](=O)[O-])c3)nc3cccnc32)cc1`, the “activity change, negative = inhibition” value is reported as inactive: -4.36%.
In the case of `CC(=O)N1CCN(c2nc3c(F)cc(F)cc3s2)CC1`, the “activity change, negative = inhibition” value is reported as inactive: 42.6%.
In the case of `Cc1cc(C)cc(NC(=O)c2sc3nc[nH]c(=O)c3c2C)c1`, the “activity change, negative = inhibition” value is reported as inactive: 14.6%.
With `CCOC(=O)Cn1c(=O)n(CC2CCCO2)c2nc(-c3ccccc3Cl)nc(C(N)=O)c21` (centres undefined) the “activity change, negative = inhibition” value was inactive: -11%.
In the case of `CCOC(=O)c1ccc(CN(Cc2ccc(OC)cc2)S(=O)(=O)c2cccc(C(F)(F)F)c2)cc1`, the “activity change, negative = inhibition” value is reported as inactive: 0.902%.
With `COc1ccccc1C(=O)Nc1c(C(=O)c2ccccc2)oc2ccccc12` the “activity change, negative = inhibition” value was inactive: -8.94%.
In the case of `CCOc1ccc(N(CC)C(=O)c2noc3c2COc2ccc(C)cc2-3)cc1`, the “activity change, negative = inhibition” value is reported as inactive: -20.3%.
In the case of `O=c1c(N2CCc3ccccc3C2)csc2ccc(F)cc12`, the “activity change, negative = inhibition” value is reported as inactive: 20.6%.
With `CC1=C(C(=O)Nc2ccccc2C)C(c2cccs2)n2nc(SCc3cc(C)ccc3C)nc2N1` (centres undefined) the “activity change, negative = inhibition” value was inactive: -7.78%.
In the case of `CCOc1ccccc1NC(=O)C1=C(C)Nc2ncnn2C1c1sccc1C` (centres undefined), the “activity change, negative = inhibition” value is reported as inactive: -13.7%.
In the case of `O=C(CCCn1c(=O)c2cccn2c2cccnc21)Nc1ccccc1C(F)(F)F`, the “activity change, negative = inhibition” value is reported as inactive: -0.791%.
With `CCn1c(CN2CCCCC2)nc2cc(NC(=O)COc3ccccc3C(C)(C)C)ccc21` the “activity change, negative = inhibition” value was inactive: -34.7%.
For `Cc1coc2c1c(C)cc1oc(=O)c(CC(=O)NCCc3ccc(Cl)cc3)c(C)c12`, the “activity change, negative = inhibition” value was inactive: -3.05%.
In the case of `Cc1ccc(NC(=O)C(=O)NCC(c2cccnc2)N2CCN(C)CC2)cc1` (centres undefined), the “activity change, negative = inhibition” value is reported as inactive: 0.422%.
For `O=C(NCCc1ccc(Cl)cc1)C(=O)NCC(c1ccco1)S(=O)(=O)c1ccccc1` (centres undefined), the “activity change, negative = inhibition” value was inactive: -24.6%.
In the case of `CCn1c2c(c(=O)n3ncc(C(=O)Nc4ccc(C(=O)OC)cc4)c13)CN(Cc1ccc(OC)cc1)CC2`, the “activity change, negative = inhibition” value is reported as inactive: 11.3%.
For `COc1ccc(CCNC(=O)c2c(O)nc3c(C)cccn3c2=O)cc1OC`, the “activity change, negative = inhibition” value was inactive: -4.44%.
For `COc1ccc(NC(=O)c2c(N)c(C(=O)c3ccc(OC)cc3)n3ccccc23)cc1`, the “activity change, negative = inhibition” value was inactive: -22.6%.
For `CCn1c2ccccc2c2cc(CN3CCN(Cc4ccc(OC)c(OC)c4)CC3)ccc21`, the “activity change, negative = inhibition” value was inactive: -20.1%.
In the case of `CCOc1ccc(CC(=O)NCCS(=O)(=O)N2CCN(c3ccc(OC)cc3)CC2)cc1`, the “activity change, negative = inhibition” value is reported as inactive: -29.8%.
In the case of `Cc1ccc(N(Cc2cccs2)C(=O)c2ccco2)cc1`, the “activity change, negative = inhibition” value is reported as inactive: -14.6%.
For `Nc1nn(-c2ccccc2)nc1C(=O)OCc1c(F)cccc1Cl`, the “activity change, negative = inhibition” value was inactive: 40.3%.
In the case of `COc1cc(Nc2nc(SCC(=O)c3ccc(Cl)c(Cl)c3)nc3ccccc23)cc(OC)c1`, the “activity change, negative = inhibition” value is reported as inactive: -23.7%.
For `O=C(CCC1N=C2c3ccccc3N=C(SCC(=O)Nc3ccc(F)cc3)N2C1=O)NCc1ccco1` (centres undefined), the “activity change, negative = inhibition” value was inactive: -2.94%.
With `CC(C)N(C(=O)Cn1cc(S(=O)(=O)Cc2ccc(Cl)cc2)c2ccccc21)C(C)C` the “activity change, negative = inhibition” value was inactive: -18.4%.
For `COc1ccc(-n2c(SCC(=O)NCc3ccccc3)nc3c([nH]c4ccccc43)c2=O)cc1`, the “activity change, negative = inhibition” value was inactive: -15.6%.
With `COc1ccc(Nc2nn(-c3ccc(OC(F)(F)F)cc3)nc2C(C)=O)cc1` the “activity change, negative = inhibition” value was inactive: 1.8%.
With `Cc1cc(C(=O)NCc2ccccc2)c2c(C)nn(-c3cccc(F)c3)c2n1` the “activity change, negative = inhibition” value was inactive: -38.1%.
